69 compounds from PubChem BioAssay AID1347073 (National Center for Advancing Translational Sciences (NCATS), 2019) can be followed below.

Among all 45,000 compounds or so, about 200 (0.44%) were called active. Not shown: some 7% with an inconclusive outcome. Calls come from the whole dose curve; as a rule, active = well fitted activation curve with a large enough effect; inconclusive = small, poorly fitted or top-dose-only effect; inactive = no such curve, though single readings can be large or run the other way. This is one part of the list.

This experiment is described as follows: qHTS of TDP-43 Inhibitors: NCGC Sytravon Library Screen. Note: 0% is about no effect; nearly all actives have a fitted effect of over 55% in size. The following applies: yeast TDP-43 toxicity rescue, BacTiter-Glo growth, 24 h; series mostly up to 46.1 µM; growth rescue (activation): at the top concentration. The procedure, abridged: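 TDP-43-expressing yeast, pregrown in raffinose, seeded at OD600 0.02 in galactose medium with compound for 24 hr at 30 deg C. Growth read by BacTiter-Glo luminescence, so rescue of toxicity appears as activation.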
(In qHTS, concentration-response curves come from the screen itself.)
Consider `O=C(CC(c1ccccc1)c1ccccc1O)NCc1ccccc1` (centres undefined), for which the “growth rescue (activation)” value was inactive: 5.94%.
Take `COC(=O)Cc1ccc(NC(=S)Nc2ccccn2)cc1`: the “growth rescue (activation)” value was inactive: 11.1%.
The value for `COc1cc2c(cc1OC)CN(S(=O)(=O)/C=C/c1ccccc1)CC2` was inactive: 14.8%; that for `Cc1ccc(-c2csc3nc(CSc4nnc(-c5ccc(Cl)cc5)n4C)[nH]c(=O)c23)cc1` was inactive: 13.4%; that for `COc1ccc(C(=O)Nn2c(CC(C)C)nc3cc(Cl)ccc3c2=O)c(OC)c1` was inactive: 10.3%.
Then `COCc1c(C(=O)N2CCN(Cc3c(F)cccc3Cl)CC2)oc2ccccc12`, with inactive: 30.3%; and `CC1CC(C)CN(c2cc3c(cc2[N+](=O)[O-])C(=O)N(c2ccccc2)C3=O)C1` (centres undefined), with inactive: 9.02%; and `Nn1c(Cc2ccc(Br)cc2)n[nH]c1=S`, with inactive: 10.6%.
Take `COc1ccc(CCNc2ncnc3sc(C)cc23)cc1OC`: the “growth rescue (activation)” value was inactive: 15.1%.
The value for `C=CCC(NCc1ccccc1)c1ccc(OC)cc1` (centres undefined) was inactive: -20.4%; that for `CCOC(=O)c1sc2nc(C)[nH]c(=S)c2c1C` was inactive: 23.2%.
Then `Cc1ccc(S(=O)(=O)/N=C(\c2ccccc2)N(C)S(=O)(=O)c2ccccc2)cc1`, with inactive: 18.4%; and `COC(=O)Cc1c(CSc2ccccc2)oc2ccc(O)c(CN(C)C)c12`, with inactive: -6%; and `CCOc1ccccc1/C=C(\C#N)C(=O)Nc1cccc(C(=O)O)c1`, with inactive: 14.5%.
The value for `OC[C@H]1O[C@@H](c2nc3ccc(-c4nc(-c5cccs5)no4)cc3[nH]2)C[C@@H]1O` was inactive: 8.33%.
On to `CCN1CCN(C(=O)/C=C/c2ccccc2[N+](=O)[O-])CC1`, for which the “growth rescue (activation)” value was inactive: 4.1%.
The value for `O=C(COC(=O)c1n[nH]c2ccccc12)Nc1ccc(Cl)cc1[N+](=O)[O-]` was inactive: -2.33%.
The value for `CC1CCCCN1C(=O)c1ccc(OC2CCN(S(=O)(=O)N(C)C)CC2)cc1` (centres undefined) was inactive: 1.03%; that for `O=C(NCC(=O)N(c1ccccc1F)C(C(=O)NC1CCCC1)c1ccco1)c1ccco1` (centres undefined) was inactive: -2.14%; that for `CC(NC(=O)c1ccc(N(C)C)cc1)c1ccc(F)cc1` (centres undefined) was inactive: 16.3%.
Then `COc1cccc(C(=O)Nn2cnnc2)c1`, with inactive: -6.4%; and `O=c1ccccn1CCOc1ccccc1Cl`, with inactive: 11.1%; and `O=C(O)Cc1ccc(-n2cccc2)cc1`, with inactive: -1.34%.
For `CC(C)Oc1cccc(NC(=O)C2(C)CCCN(C)C2)c1` (centres undefined), the “growth rescue (activation)” value was inactive: 10.8%.
Then `CCOC(=O)C1(CCc2ccccc2)CCN(C(=O)C(C)n2cncn2)CC1` (centres undefined), with inactive: 1.34%; and `O=C(CSCc1c(F)cccc1F)Nc1ccccc1`, with inactive: 29%; and `COc1ccccc1/C=C/c1nc(C#N)c(NCc2ccccc2)o1`, with inactive: 24.1%.
With `CC(=O)Nc1nc(CC(C)C)cc(-c2ccccc2)c1C#N`, the “growth rescue (activation)” value is inactive: 11.6%.
The value for `NS(=O)(=O)c1ccc(CCNC(=O)COC(=O)c2ccc([N+](=O)[O-])o2)cc1` was inactive: 0.155%.
For `O=C(CNC(=O)c1ccc(Br)cc1)NCC(=O)OCC(=O)c1ccccc1`, the “growth rescue (activation)” value is inactive: -3.14%.
The value for `COc1ccc(-c2nn(-c3ccccc3)cc2/C=C2/SC(=S)N(CCC(=O)O)C2=O)c(C)c1` was inactive: -2.04%; that for `CCc1ccccc1N(CC)C(=O)c1cc2c(s1)-c1ccccc1SC2` was inactive: 14.4%; that for `O=C(C1CC(=O)N(c2ccc(F)cc2)C1)N1CCCCC1` (centres undefined) was inactive: 0.339%.
On to `CC[n+]1c(C)n(-c2ccccc2)c2ccc(NC(C)=O)cc21`, for which the “growth rescue (activation)” value is inactive: -8.31%.
`CC(=O)Nc1ccc(N=c2cc([N+](=O)[O-])cc(Cl)n2O)cc1`: the “growth rescue (activation)” value is inactive: 18%.
For the compound `CSc1nc2ccc(NC(=O)c3ccc(F)c(F)c3)cc2s1`, the “growth rescue (activation)” value is inactive: 24.3%.
`CCNC(=O)C(=O)Nc1ccc([N+](=O)[O-])cc1`: the “growth rescue (activation)” value is inactive: -9.75%.
Then `Cn1nnc(NC(=S)NC(=O)c2ccco2)n1`, with inactive: -0.465%.
The value for `CN(CC(=O)Nc1cc(Cl)cc(Cl)c1)Cc1cccs1` was inactive: 7.38%; that for `COc1ccccc1NS(=O)(=O)c1ccc(N/N=C/c2ccccc2OCC(=O)O)c([N+](=O)[O-])c1` was inactive: -7.08%; that for `CCN(CC)CCOC(=O)c1ccc(NC(=O)CCCN2C(=O)/C(=C/c3cccs3)SC2=S)cc1` was inactive: 11%.
Consider `Cc1cc(NC(=O)CSc2nc3ccccc3cc2C#N)no1`, for which the “growth rescue (activation)” value was inactive: 1.41%.
The value for `CC(OC(=O)C1CC1)C(=O)Nc1cccc(S(=O)(=O)N2CCOCC2)c1` (centres undefined) was inactive: -16.8%; that for `Cc1cc(C)c(Cn2cnc3ccccc32)c(C)c1` was inactive: -18.9%; that for `Cc1ccc([N+](=O)[O-])cc1S(=O)(=O)NCCc1c(C)[nH]c2ccccc12` was inactive: -2.43%.
For the compound `COc1ccc(NC(=O)c2ccco2)cc1NC(=O)c1ccccc1[N+](=O)[O-]`, the “growth rescue (activation)” value is inactive: -9.23%.
Then `Cc1ccc(S(=O)(=O)N2CCC(C(=O)Nc3nnc(C)s3)CC2)cc1`, with inactive: -4%.
For `Cc1cnc(C(=O)N2CCCC(C(=O)c3ccc(C(C)(C)C)cc3)C2)cn1` (centres undefined), the “growth rescue (activation)” value was inactive: 9.14%.
Then `Cn1c(=O)c2c(ncn2CC(=O)N/N=C/C=C/c2ccccc2)n(C)c1=O`, with inactive: 14.7%.
On to `O=C(NCCSCc1ccccc1)c1ccccc1`, for which the “growth rescue (activation)” value was inactive: 28.2%.
Then `CN(C(=O)CSc1nc2cc(Cl)ccc2c(=O)n1Cc1ccco1)C1CCS(=O)(=O)C1` (centres undefined), with inactive: -3.89%; and `COc1ccccc1S(=O)(=O)N1CCN(S(=O)(=O)c2ccccc2C#N)CC1`, with inactive: -1.76%.
Then `Cc1c(NC(=O)/C=C/c2cn(-c3ccccc3)nc2-c2ccccc2)c(=O)n(-c2ccccc2)n1C`, with inactive: 10.5%.
Then `COCCNC(=O)C1CCCN(C(=O)c2ccc(SC(F)(F)F)cc2)CC1` (centres undefined), with inactive: -8.4%; and `COc1ccccc1C1/C(=C(/O)c2ccccc2)C(=O)C(=O)N1CC(C)O` (centres undefined), with inactive: 19.6%; and `CC(=O)c1cccc(-c2ccnc3c2CC(C(=O)NCc2ccc(N4CCN(C)CC4)cc2)O3)c1` (centres undefined), with inactive: 5.81%.
With `CCCCOC(=O)n1c(=O)oc2ccc(S(=O)(=O)N3CCCCC3)cc21`, the “growth rescue (activation)” value was inactive: 17.8%.
The value for `COc1cccc(NC(=O)c2ccc(-c3ccc([N+](=O)[O-])cc3)o2)c1` was inactive: -15.3%; that for `O=C(O)/C=C\C(=O)NNC(=O)c1cc(-c2ccccc2)n[nH]1` was inactive: 14.8%.
Then `CC(=O)Nc1ccc(CN2CCN(CCC(C)C)C(CCO)C2)cc1` (centres undefined), with inactive: -13.4%; and `CC1(C)CC(=O)C=C(NNC(=O)OC(C)(C)C)C1`, with inactive: 10.2%; and `CN(C)Cc1nc2ccccc2c(=O)n1Cc1nc(C(C)(C)C)cs1`, with inactive: 21.4%.
Consider `Cc1ccc(NC(=O)c2ccc(OCc3c(C)noc3C)cc2)cc1C`, for which the “growth rescue (activation)” value is inactive: -1.92%.
Consider `CCc1ccc(C(=O)Cn2ccsc2=N)cc1`, for which the “growth rescue (activation)” value is inactive: -28%.
Then `Cc1ccc(CSc2nnc(SCC(=O)N/N=C/C=C/c3ccccc3[N+](=O)[O-])s2)cc1`, with inactive: 1.32%; and `Cc1cc(C)c(C#N)c(N2CCC(C(N)=O)CC2)n1`, with inactive: -4.3%.
As for `CCOC(=O)Cc1n[nH]c(=O)c2ccccc12`, the “growth rescue (activation)” value is inactive: 6.07%.
For `CCc1nc2nc(C)c(NS(=O)(=O)c3ccc(Br)s3)c(=O)n2[nH]1`, the “growth rescue (activation)” value is inactive: -17.1%.
Then `CCOc1ccc(N/C(N)=N/c2nc(CSc3nnc(C)s3)cc(=O)[nH]2)cc1`, with inactive: 2.33%.
